# Data reported in PubChem BioAssay (NCATS).
# “And” between values parts separate entries of the source, which are not always exact repeats. Equal values may be shown once. The inconclusive results got no clear call from the source; some entries with a clear call stand among them for comparison. For part of these data: A potency beside an inconclusive call is a rough fit, not a confirmed value. A structure can be active in one record and inactive in another. The source made the active and inactive calls. Calls follow the shape of the dose curve; as a rule, active = well fitted curve in the direction sought with a large enough effect; inconclusive = small, poorly fitted or top-dose-only effect, or another doubt; inactive = no such curve, though single readings can be large; an effect the other way counts as inactive or inconclusive.
# Legend:
# [1] = test system: CRL-7250; assay: Cytotoxic Profiling of Annotated Libraries Using Quantitative High-Throughput Screening (AID 1296008); details: Five cell lines viability, CellTiter-Glo ATP luminescence, 48-72 h; max response: stronger effect = lower value; also: nearly all actives have a fitted effect of over 60% in size; as to max response: % is scaled to controls: 0 for no effect and ±100 for the full control effect
# Outline: (§1)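 Cells exposed to compounds for 48 or 72 hr at 37 degrees Celsius. Viability read as ATP-coupled luminescence with CellTiter-Glo after 10 min at room temperature.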
# [2] = test system: HEK293; assay: as above; details: Five cell lines viability, CellTiter-Glo ATP luminescence, 48-72 h; max response: stronger effect = lower value
# Outline: as §1
# [3] = test system: KB-3-1; assay: as above; details: Five cell lines viability, CellTiter-Glo ATP luminescence, 48-72 h; max response: stronger effect = lower value
# Outline: as §1
# [4] = test system: NIH3T3; assay: as above; details: Five cell lines viability, CellTiter-Glo ATP luminescence, 48-72 h; max response: stronger effect = lower value
# Outline: as §1
# [5] = test system: MCC-13; assay: qHTS assay to identify novel small-molecules to repurpose for Merkel cell carcinoma treatment (AID 1296009); details: MCC and control cell lines, CellTiter-Glo viability, 72 h; series mostly up to 46 µM; also: nearly all actives have a fitted effect of over 60% in size; as to activity change, negative = cytotoxicity: % is scaled to controls: 0 for no effect and ±100 for the full control effect
# Outline: (§2)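 CellTiter-Glo luminescence after 72 hr compound exposure at 37 degree celsius gave cell viability. Libraries NPC and MIPE were run as 8- and 11-point dose responses; RLUs normalized to DMSO (negative) and no-cell (cytotoxicity) controls.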
# [6] = test system: MCC-26; assay: as above; details: MCC and control cell lines, CellTiter-Glo viability, 72 h; series mostly up to 46 µM
# Outline: as §2
# [7] = test system: UISO; assay: as above; details: MCC and control cell lines, CellTiter-Glo viability, 72 h; series mostly up to 46 µM
# Outline: as §2
# [8] = test system: WaGa; assay: as above; details: MCC and control cell lines, CellTiter-Glo viability, 72 h; series mostly up to 46 µM
# Outline: as §2
# [9] = test system: MKL-1; assay: as above; details: MCC and control cell lines, CellTiter-Glo viability, 72 h; series mostly up to 46 µM
# Outline: as §2
# [10] = test system: C33A; assay: Primary qHTS to identify gynecologic anti-cancer compounds using libraries of approved drugs and bioactive compounds (AID 1345084); details: Gynecologic cancer cell panel viability, ATPlite luminescence, 48 h; series mostly up to 57.5 µM; also: nearly all actives have a fitted effect of over 55% in size; as to activity change, negative = cytotoxicity: % is scaled to controls: 0 for no effect and ±100 for the full control effect
# Outline: (§3)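 Luminescence from the ATPlite ATP-monitoring reagent indicates viable cell number; lower signal means cytotoxicity. Cells received compound 16 h after seeding and were exposed for 48 h across five concentrations.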
# [11] = test system: CAOV3; assay: as above; details: Gynecologic cancer cell panel viability, ATPlite luminescence, 48 h; series mostly up to 57.5 µM
# Outline: as §3
# [12] = test system: CASKI; assay: as above; details: Gynecologic cancer cell panel viability, ATPlite luminescence, 48 h; activity change, negative = cytotoxicity: at 57.5 µM (top of the series)
# Outline: as §3
# [13] = test system: Es-2; assay: as above; details: Gynecologic cancer cell panel viability, ATPlite luminescence, 48 h; series mostly up to 57.5 µM
# Outline: as §3
# [14] = test system: HeLa; assay: as above; details: Gynecologic cancer cell panel viability, ATPlite luminescence, 48 h; series mostly up to 57.5 µM
# Outline: as §3
# [15] = test system: HaCat; assay: Cytotoxic Profiling of Annotated Libraries Using Quantitative High-Throughput Screening (AID 1296008); details: Five cell lines viability, CellTiter-Glo ATP luminescence, 48-72 h; max response: stronger effect = lower value; also: nearly all actives have a fitted effect of over 60% in size
# Outline: as §1
# [16] = test system: astro; assay: Drug repurposing screens with cells derived from glioblastoma tumor samples (AID 1345199); details: viability, ATP luminescence, 48 h; activity, negative = cell killing: at 45.9 µM (top of the series); also: nearly all actives have a fitted effect of over 40% in size
# Outline: (§4)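 Primary testing used CD133+ neurospheres from four GBM patients, seven concentrations, 48 h exposure and ATP-based viability; confirmation added three slower-growing patient lines.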
# [17] = qHTS assay to identify inhibitors of the type 1 interferon - major histocompatibility complex class I in skeletal muscle: Counter screen cell viability and HiBit confirmation (AID 1347412); details: iHSKM muscle cells + IFN-b, HiBiT or CellTiter-Glo, 24 h; Viability; also: nearly all actives have a fitted effect of over 60% in size
# Outline: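 Myoblasts (C25cl48, HLA-B HiBiT) seeded in medium without dexamethasone, IFN-b 4 ng/ml added except unstimulated columns; 1 hr later compounds pinned (12-pt 1:3, top 46 uM final). Incubated 24 hrs, lysed 10 min, luminescence measured.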
# [18] = Drug repurposing screens with cells derived from glioblastoma tumor samples (AID 1345199); details: GBM patient neurospheres viability, ATP luminescence, 48 h; Potency: tumour line A unless noted; activity, negative = cell killing: at 46 µM (top of the series), tumour line A unless noted; also: nearly all actives have a fitted effect of over 40% in size
# Outline: as §4
# [19] = test system: MKL-2; assay: qHTS assay to identify novel small-molecules to repurpose for Merkel cell carcinoma treatment (AID 1296009); details: MCC and control cell lines, CellTiter-Glo viability, 72 h; series mostly up to 46 µM; also: nearly all actives have a fitted effect of over 60% in size; as to activity change, negative = cytotoxicity: % is scaled to controls: 0 for no effect and ±100 for the full control effect
# Outline: as §2
# [20] = test system: W2; assay: qHTS profiling for inhibitors of Plasmodium falciparum proliferation (AID 504749); also: nearly all actives have a fitted effect of over 60% in size; details: P. falciparum in erythrocytes, SYBR Green DNA, 72 h; series mostly up to 28.7 µM
# Outline: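 SYBR Green fluorescence (ex 485 nm, em 535 nm) reports parasite DNA after 72 h compound exposure of infected red cells at 0.3% parasitemia, 2.5% hematocrit; signal normalized to 0.29 uM artemisinin and vehicle wells.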
# Potency is read from the fitted curve at half-maximal effect; tags tell the direction and shape of the fitted curve.
compound,measurement,setting,value
Nc1ncn([C@@H]2O[C@H](CO)[C@@H](O)[C@@H]2O)c(=O)n1,Potency,[1],active: 5.26 µM
same,Potency,[2],active: 4.18 µM
same,Potency,[3],active: 8.33 µM
same,Potency,[4],"inconclusive: 29.6 µM [inhibitor, partial curve, poor fit]"
same,Potency,[5],"inconclusive: 23.5 µM [inhibitor, single point]"
same,Potency,[6],"inconclusive: 18.7 µM [inhibitor, partial curve, poor fit]"
same,Potency,[7],"inconclusive: 14.8 µM [inhibitor, partial curve]"
same,Potency,[8],"inconclusive: 16.6 µM [inhibitor, partial curve, poor fit]"
OCCn1cc(-c2cnc3nnn(Cc4ccc5ncccc5c4)c3n2)cn1,Potency,[1],"inconclusive: 18.4 µM [inhibitor, single point]"
same,Potency,[2],"inconclusive: 29.1 µM [inhibitor, partial curve, poor fit]"
same,Potency,[4],"inconclusive: 4.18 µM [inhibitor, partial curve]"
same,Potency,[8],inactive
Cc1c(O)cccc1C(=O)N[C@@H](CSc1ccccc1)[C@H](O)CN1C[C@H]2CCCC[C@H]2C[C@H]1C(=O)NC(C)(C)C,Potency,[1],"inconclusive: 23.7 µM [inhibitor, single point]"
same,Potency,[2],"inconclusive: 33.5 µM [inhibitor, single point]"
same,Potency,[3],"inconclusive: 29.1 µM [inhibitor, single point]"
same,Potency,[4],"inconclusive: 26.6 µM [inhibitor, single point]"
same,Potency,[5],"inconclusive: 16.8 µM [inhibitor, single point]"
same,Potency,[9],"inconclusive: 29.9 µM [inhibitor, single point]"
same,Potency,[10],"inconclusive: 39.8 µM [cytotoxic, single point]"
O=C(O)C[C@H](O)C[C@H](O)/C=C/c1c(C2CC2)nc2ccccc2c1-c1ccc(F)cc1,Potency,[1],active: 0.731 µM
same,Potency,[2],active: 5.8 µM
same,Potency,[3],"inconclusive: 18.4 µM [inhibitor, single point]"
same,Potency,[4],active: 14.6 µM
same,Potency,[10],"inconclusive: 8.91 µM [cytotoxic, partial curve]"
same,Potency,[11],"inconclusive: 20 µM [cytotoxic, single point]"
same,Potency,[12],"inconclusive: 15.8 µM [cytotoxic, partial curve, poor fit]"
same,Potency,[13],"inconclusive: 10 µM [cytotoxic, partial curve]"
same,Potency,[14],active: 8.91 µM
CC(C)C[C@H](NC(=O)[C@H](Cc1ccccc1)NC(=O)c1cnccn1)B(O)O,Potency,[1],active: 59.6 nM and active: 51.7 nM
same,Potency,[2],active: 47.3 nM and active: 41.1 nM
same,Potency,[15],active: 0.188 µM
same,Potency,[9],active: 0.0266 µM
same,Potency,[16],active: 501 nM and active: 316 nM
same,Potency,[17],"inconclusive: 0.0313 µM [cytotoxic, full curve]"
same,Potency,[10],active: 0.1 µM
same,Potency,[11],inconclusive: 35.5 nM and inconclusive: 1 µM
same,Potency,[12],inconclusive: 89.1 nM and inconclusive: 178 nM
same,Potency,[13],inconclusive: 35.5 nM and inconclusive: 31.6 nM
same,Potency,[14],active: 0.316 µM
NC(=Nc1ccccc1)Nc1ccccc1,Potency,[1],"inconclusive: 68.6 µM [inhibitor, single point]"
same,Potency,[2],"inconclusive: 48.6 µM [inhibitor, single point]"
same,Potency,[3],"inconclusive: 56.2 µM [inhibitor, single point]"
same,Potency,[6],"inconclusive: 24.3 µM [inhibitor, partial curve]"
same,Potency,[18],active: 25.1 µM
same,Potency,[11],"inconclusive: 20 µM [cytotoxic, partial curve]"
same,Potency,[12],"inconclusive: 1.41 µM [cytotoxic, full curve, poor fit]"
same,Potency,[13],"inconclusive: 44.7 µM [cytotoxic, partial curve, poor fit]"
same,Potency,[14],inactive
Cc1nn(Cc2ccccc2Cl)c(C)c1CN(C)CC(O)COc1ccc(Cl)cc1 (configuration not stated),Potency,[1],"inconclusive: 37.2 µM [inhibitor, single point]"
same,Potency,[2],active: 18.7 µM
same,Potency,[15],"inconclusive: 23.5 µM [inhibitor, single point]"
same,Potency,[19],"inconclusive: 18.7 µM [inhibitor, single point]"
CCCCCCCCCCCCCC[N+](C)(C)C,Potency,[1],active: 7.5 µM
same,Potency,[2],active: 2.66 µM
same,Potency,[4],active: 23.7 µM
same,Potency,[5],"inconclusive: 26.6 µM [inhibitor, single point]"
same,Potency,[6],active: 16.8 µM
same,Potency,[7],active: 2.37 µM
same,Potency,[8],active: 1.33 µM
same,Potency,[16],active: 10 µM
same,Potency,[10],"inconclusive: 17.8 µM [cytotoxic, partial curve, poor fit]"
same,Potency,[11],"inconclusive: 3.16 µM [cytotoxic, partial curve, poor fit]"
same,Potency,[12],active: 3.16 µM
same,Potency,[13],active: 14.1 µM
same,Potency,[14],"inconclusive: 22.4 µM [cytotoxic, partial curve, poor fit]"
CC#C[C@]1(O)CC[C@H]2[C@@H]3CCC4=CC(=O)CCC4=C3[C@@H](c3ccc(N(C)C)cc3)C[C@@]21C,Potency,[20],active: 6.75 µM
same,Potency,[1],"inconclusive: 11.8 µM [inhibitor, single point]"
same,Potency,[2],"inconclusive: 29.9 µM [inhibitor, single point]"
same,Potency,[3],"inconclusive: 29.1 µM [inhibitor, single point]"
same,Potency,[5],"inconclusive: 33.2 µM [inhibitor, single point]"
same,Potency,[6],"inconclusive: 33.2 µM [inhibitor, single point]"
same,Potency,[19],active: 21.1 µM and active: 93.5 nM
same,Potency,[7],"inconclusive: 33.5 µM [inhibitor, single point] and active: 2.96 µM"
same,Potency,[8],"inconclusive: 33.5 µM [inhibitor, single point] and inconclusive: 83.3 nM [inhibitor, full curve]"
same,Potency,[16],"inconclusive: 25.1 µM [inhibitor, partial curve]"
same,Potency,[11],inactive
same,Potency,[13],inactive
same,Potency,[14],"inconclusive: 10 µM [cytotoxic, partial curve]"
CC(CN1c2ccccc2Sc2ccccc21)N(C)C (configuration not stated),Potency,[20],"inconclusive: 1.2 µM [inhibitor, partial curve]"
same,Potency,[1],"inconclusive: 16.8 µM [inhibitor, partial curve]"
same,Potency,[2],active: 11.9 µM
same,Potency,[4],"inconclusive: 33.5 µM [inhibitor, single point]"
same,Potency,[18],active: 14.1 µM
same,Potency,[11],"inconclusive: 39.8 µM [cytotoxic, single point]"
C#C[C@]1(O)CC[C@@H]2[C@@H]3CCc4cc(O)ccc4[C@H]3CC[C@@]21C,max response,[1],inactive: -14.3%
same,Potency,[2],"inconclusive: 29.6 µM [inhibitor, single point]"
same,Potency,[15],"inconclusive: 33.2 µM [inhibitor, single point]"
same,Potency,[19],"inconclusive: 14.8 µM [inhibitor, partial curve]"
same,Potency,[7],"inconclusive: 16.6 µM [inhibitor, partial curve, poor fit]"
CN1CCCC(n2nc(Cc3ccc(Cl)cc3)c3ccccc3c2=O)CC1 (configuration not stated),Potency,[1],"inconclusive: 11.8 µM [inhibitor, single point]"
same,Potency,[2],"inconclusive: 33.5 µM [inhibitor, single point] and inconclusive: 37.2 µM [inhibitor, single point]"
same,Potency,[5],"inconclusive: 16.6 µM [inhibitor, partial curve]"
same,Potency,[6],active: 11.8 µM
same,Potency,[9],"inconclusive: 26.6 µM [inhibitor, single point]"
same,Potency,[19],active: 15 µM and active: 418 nM
same,Potency,[8],"inconclusive: 29.9 µM [inhibitor, single point]"
same,Potency,[18],active: 11.2 µM
same,Potency,[16],"inconclusive: 28.2 µM [inhibitor, partial curve]"
same,Potency,[13],"inconclusive: 25.1 µM [cytotoxic, single point]"
CC/C(=C(/CC)c1ccc(O)cc1)c1ccc(O)cc1,Potency,[20],"inconclusive: 15.1 µM [inhibitor, single point]"
same,Potency,[1],"inconclusive: 33.5 µM [inhibitor, single point]"
same,Potency,[2],"inconclusive: 29.9 µM [inhibitor, single point]"
same,Potency,[15],"inconclusive: 26.6 µM [inhibitor, single point]"
same,Potency,[19],"inconclusive: 5.31 µM [inhibitor, full curve, poor fit]"
same,Potency,[18],active: 14.1 µM
same,Potency,[16],"inconclusive: 10 µM [inhibitor, partial curve]"
Cc1ccc(S(=O)(=O)Nc2cc(Cl)ccc2C(=O)Nc2nc(-c3ccccc3)cs2)cc1,max response,[1],inactive: 3.55%
same,Potency,[2],active: 11.8 µM
same,Potency,[4],"inconclusive: 13.2 µM [inhibitor, partial curve]"
same,Potency,[7],"inconclusive: 14.8 µM [inhibitor, partial curve]"
NC(=O)c1noc([C@H](CCCC2CCCCC2)CC(=O)NO)n1,Potency,[1],"inconclusive: 32.6 µM [inhibitor, partial curve, poor fit]"
same,Potency,[2],"active: 11.8 µM and inconclusive: 18.4 µM [inhibitor, single point]"
same,Potency,[15],"inconclusive: 37.2 µM [inhibitor, partial curve, poor fit] and inconclusive: 23.1 µM [inhibitor, single point]"
same,Potency,[5],"inconclusive: 16.6 µM [inhibitor, partial curve]"
same,Potency,[7],active: 14.8 µM
same,Potency,[8],"inconclusive: 16.6 µM [inhibitor, partial curve]"
same,Potency,[11],"inconclusive: 2.82 µM [rising, partial curve, poor fit]"
